The list shows a part of the results.
system: S. aureus RN4220; assay: growth inhibition call (relative growth <= 0.2); settings: 50 µM

Growth inhibition call, inactive:
C[C@H]1CN([C@@H](C)CO)C(=O)c2cc(C#Cc3ccccc3F)cnc2O[C@H]1CN(C)C(=O)c1ccc2c(c1)OCO2
N[C@@H](Cc1ccc(Cl)cc1)C(=O)O
O=C(C[C@H]1CC[C@H]2[C@@H](COC[C@@H](O)CN2Cc2ccccc2F)O1)N[C@H]1CCN(Cc2ccccc2)C1
CN(C)CCCCNC(=O)[C@H]1C[C@H]2C(=O)NCC(=O)N2[C@H]1c1cccc(OCCO)c1
COc1ccc2c3c([nH]c2c1)[C@H](CO)N(C[C@]13CCN(CC1)C(=O)c1cnccn1)C(=O)c1cnccn1
COc1ccc(S(=O)(=O)N(C)C[C@H]2Oc3ccc(NC(=O)Nc4c(C)noc4C)cc3C(=O)N([C@@H](C)CO)C[C@@H]2C)cc1
COc1ccc(OCCC(=O)NN)cc1
Cc1ccc(S(=O)(=O)N[C@H]2C=C[C@@H](CC(=O)NCCN3CCCCC3)O[C@H]2CO)cc1
COCC(=O)Nc1ccc2c(c1)OC[C@@H](C)N(C(=O)Cc1cccnc1)C[C@H](C)[C@@H](OC)CN(C)C2=O
C[C@@H]1CCCCO[C@H](CN(C)CC2CC2)[C@H](C)CN([C@@H](C)CO)C(=O)c2cc(NC(=O)NC3CCCCC3)ccc2O1
C[C@@H]1CN([C@H](C)CO)C(=O)c2cc(/C=C/c3ccccc3)cnc2O[C@H]1CN(C)S(=O)(=O)c1cn(C)cn1
COCCNC(=O)C[C@@H]1CC[C@@H]2[C@H](COC[C@@H](O)CN2C(=O)Nc2ccc3c(c2)OCO3)O1
Cc1ccc(S[C@]2(C(=O)NCC(F)(F)F)CC(=O)N(C3Cc4ccccc4C3)[C@@H]2c2ccc(CO)cc2I)cc1
COCC(=O)Nc1ccc2c(c1)C(=O)N(C)C[C@@H](OC)[C@@H](C)CN(C(=O)Cc1cccnc1)[C@@H](C)CO2
C[C@@H]1CN([C@@H](C)CO)C(=O)c2cc(NC(=O)Nc3ccc(C(F)(F)F)cc3)ccc2O[C@@H](C)CCCCO[C@@H]1CN(C)C(=O)Nc1ccc2c(c1)OCO2
C[C@@H]1CCCCO[C@H](CN(C)S(C)(=O)=O)[C@@H](C)CN([C@@H](C)CO)C(=O)c2cc(NS(C)(=O)=O)ccc2O1
COc1ccc(NC(=O)N(C)C[C@@H]2Oc3ccc(NC(=O)Nc4ccc(C(F)(F)F)cc4)cc3CC(=O)N([C@H](C)CO)C[C@@H]2C)cc1
C[C@H](CO)N1C[C@H](C)[C@H](CN(C)C(=O)Nc2ccc(C(F)(F)F)cc2)OCCCC[C@H](C)Oc2ccc(NS(=O)(=O)c3ccc(Cl)cc3)cc2C1=O
COc1ccc(NC(=O)N(C)C[C@@H]2Oc3ccc(NC(=O)Nc4cccc5ccccc45)cc3C(=O)N([C@H](C)CO)C[C@H]2C)cc1
CCc1nc2ccc(C(=O)Nc3cccc(NS(C)(=O)=O)c3)cn2c1N(C)CCN1CCOCC1
C[C@@H]1CCCCO[C@@H](CN(C)S(=O)(=O)c2ccc(F)cc2)[C@H](C)CN([C@H](C)CO)C(=O)c2cc(NC(=O)Cc3ccccc3)ccc2O1
CCCNC(=O)N[C@@H]1CC[C@@H](CC(=O)N2CCN(C)CC2)O[C@H]1CO
C[C@H]1CCCCO[C@@H](CN(C)S(=O)(=O)c2cccs2)[C@@H](C)CN([C@@H](C)CO)C(=O)c2cc(NC(=O)C3CCCCC3)ccc2O1
CC(=O)N1C[C@H](O)C[C@H]1C(=O)O

— the antibiotic and cytotoxicity screens of Wong et al. (2023)
